In all, about 94,000 compounds went through this assay and about 6,200 (6.6%) were called active. This list was built around the results that the source calls inconclusive (neither active nor inactive); the mix of calls is not that of the screen. The call rests on the fitted dose curve; in most records, active means well fitted inhibition curve with a large enough effect; inconclusive means small, poorly fitted or top-dose-only effect; inactive means flat fitted curve, though single readings scatter. Potencies of inconclusive entries are doubtful fits and often do not repeat.
experiment: Cytotoxic Profiling in HEK 293 Cell Line of Diverse Libraries Using Quantitative High-Throughput Screening; settings: HEK 293 viability, ATP luminescence (CellTiter-Glo), 48-72 h; activity change, negative = cytotoxicity: at 115 µM (top of the series) unless noted; series mostly up to 115 µM; further: nearly all actives have a fitted effect of over 60% in size
Method in brief: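 HEK 293 cells at 250 cells/well were exposed to compounds by pintool transfer for 48 or 72 hr at 37 degree Celsius, 5% CO2. Viability was read as ATP-coupled luminescence with CellTiter-Glo after 10 min at room temperature.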
On the % scale 0 is the no-effect control and ±100 the full control effect; potency means the concentration at half of the fitted maximal effect; tags describe the fitted curve by direction and shape.

Structure (SMILES)	activity change, negative = cytotoxicity	Potency
Cc1cc(=O)n(CC(=O)Nc2cccc(Cl)c2C)c(N2CCc3ccccc3C2)n1	inactive: 1.27%	–
O=C1CN(C(=O)c2cccc(C(F)(F)F)c2)CC(O)CN1Cc1ccc(Cl)cc1 (configuration not stated)	–	inconclusive: 89.1 µM [inhibitor, partial curve, poor fit]
COc1ccc(CCc2nc3nccc(-c4cccs4)n3n2)cc1OC	–	inconclusive: 56.2 µM [inhibitor, partial curve, poor fit]
O=C(NC1CCN(Cc2cccc(-c3ccc(F)c(F)c3)c2)CC1)c1ccc(C(F)(F)F)cc1	inactive: -16.5%	–
Cc1noc(-c2ccccc2Cl)c1C(=O)NCc1cc(F)cc(F)c1	–	inconclusive: 100 µM [inhibitor, partial curve, poor fit]
CC(C)(C)c1nc(C(=O)NCCc2ccc(Cl)cc2)n2ccncc12	–	active: 35.5 µM
Cc1ccc(S(=O)(=O)N2CCCC(CCC(=O)N3CCCCC3)C2)cc1 (configuration not stated)	–	inconclusive: 39.8 µM [inhibitor, partial curve]
O=C(Cc1cccc(Cl)c1)N1CCN(C(=O)c2nc3cccnc3n(CCc3ccccc3)c2=O)CC1	–	inconclusive: 56.2 µM [inhibitor, partial curve, poor fit]
COc1ccc(OCC2CCCN(C(=O)c3cn(C4CCCCC4)nn3)C2)cc1 (configuration not stated)	–	inconclusive: 50.1 µM [inhibitor, partial curve, poor fit]
O=C(C1CCCC1)N1CCC2(CC1)CC(N(C(=O)c1ccccc1)C1CC1)CCO2 (configuration not stated)	–	inconclusive: 44.7 µM [inhibitor, partial curve, poor fit]
CC1=C(C(=O)OC(C)C)C(c2ccccc2Cl)N2C(CC(=O)N3CCOCC3)=CSC2=N1 (configuration not stated)	–	inconclusive: 89.1 µM [inhibitor, single point]
CNC(=O)CCn1ncc2cc(OCc3ccccc3-c3ccccc3C)ccc21	–	inconclusive: 89.1 µM [inhibitor, partial curve, poor fit]
COc1ccc([S+](=O)([O-])N2CCC3(CC2)OCCN(CCc2ccccc2)C3=O)cc1	–	inconclusive: 50.1 µM [inhibitor, partial curve, poor fit]
COc1ccc(C(=O)N[C@@H]2C[C@H](COc3cccc(C)n3)[C@@H](O)[C@H]2O)cc1	–	inconclusive: 63.1 µM [inhibitor, full curve, poor fit]
O=C(NCC1CCCO1)c1ccc2oc(-c3ccc(C(F)(F)F)cc3)nc2c1 (configuration not stated)	–	active: 17.8 µM
COc1ccc(C(C(=O)O)N2CCc3sccc3C2)c(OC)n1 (configuration not stated)	inactive: -3.9%	–
COc1ccc(F)cc1-c1cccc(C(=O)NCC(=O)N2CCN(C)CC2)c1	–	inconclusive: 44.7 µM [inhibitor, partial curve, poor fit]
